Measurements published in PubChem BioAssay AID488969 (Vanderbilt High Throughput Screening Facility, 2010).
In all, about 110,000 compounds were measured (“z-score”: median about -0.1, highest 2% from about 2 on). The list shows a part of the results. Activity calls are given as the source filed them.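 The calls were made as follows: active = z-score in the third read window above 3 or below -3; inactive = the rest.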

The compounds below were run against Metabotropic glutamate receptor 8 (Rattus norvegicus) (UniProt P70579) (assay: rat mGluR8 modulators via GIRK flux, primary screen, cell-based, thallium flux, HTS (AID 488969)). Conditions: HEK293 rat mGluR8, GIRK (G protein-gated inwardly rectifying potassium channel) thallium flux, FluoZin2; at 10 µM; stronger effect = higher value; submaximal glutamate (EC20) added with thallium.
Chain of UniProt P70579 (P70579 whole entry, looked up): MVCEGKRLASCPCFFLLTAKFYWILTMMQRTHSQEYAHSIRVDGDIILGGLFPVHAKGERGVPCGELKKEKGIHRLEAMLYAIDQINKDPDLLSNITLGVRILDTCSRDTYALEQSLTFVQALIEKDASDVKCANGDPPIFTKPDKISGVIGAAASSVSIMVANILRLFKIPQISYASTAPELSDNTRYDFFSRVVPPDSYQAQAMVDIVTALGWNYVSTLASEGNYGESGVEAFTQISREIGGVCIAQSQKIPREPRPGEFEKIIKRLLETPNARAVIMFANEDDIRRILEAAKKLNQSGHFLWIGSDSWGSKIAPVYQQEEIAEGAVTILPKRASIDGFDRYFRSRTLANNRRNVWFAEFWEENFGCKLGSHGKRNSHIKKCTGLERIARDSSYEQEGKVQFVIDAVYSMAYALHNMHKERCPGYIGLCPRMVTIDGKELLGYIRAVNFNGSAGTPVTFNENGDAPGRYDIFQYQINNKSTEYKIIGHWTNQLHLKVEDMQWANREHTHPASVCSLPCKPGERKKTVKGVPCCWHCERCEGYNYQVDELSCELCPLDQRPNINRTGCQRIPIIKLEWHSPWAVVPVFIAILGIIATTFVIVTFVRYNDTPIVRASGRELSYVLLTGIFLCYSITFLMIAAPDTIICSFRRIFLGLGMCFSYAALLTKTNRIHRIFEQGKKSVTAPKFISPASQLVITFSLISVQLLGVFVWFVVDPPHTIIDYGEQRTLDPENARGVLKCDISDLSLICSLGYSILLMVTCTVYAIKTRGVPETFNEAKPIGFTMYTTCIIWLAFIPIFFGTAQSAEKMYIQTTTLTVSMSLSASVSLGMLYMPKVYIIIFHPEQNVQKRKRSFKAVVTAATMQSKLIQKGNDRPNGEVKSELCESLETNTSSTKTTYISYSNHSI

| Compound | z-score |
| --- | --- |
| COc1cc2c(cc1NC(=O)C(c1ccccc1)c1ccccc1)CCCC2 | -0.42 |
| CCN(CC)CCCNC(=O)C(C)n1nc(C)c2sc3ccccc3c2c1=O (stereo not given) | 0.158 |
| O=C(COC(=O)c1ccc(S(=O)(=O)N2CCc3ccccc3C2)cc1)NC(=O)NCc1ccco1 | 0.0161 |
| O=C(c1cccs1)c1coc2ccc(O)cc12 | 0.513 |
| O=C(COc1ccc(C(=O)c2ccccc2)cc1)NC1CCCCCC1 | 0.0351 |
| CCOC(=O)c1ccc(NC(=S)NNC(=O)C2(C)CC2(Cl)Cl)cc1 (stereo not given) | -0.291 |
| Cn1cnnc1SCC(=O)NN(c1ccccc1)c1ccccc1 | -0.0793 |
| CCN1C(=O)CC(N2CCC(C(=O)OC)CC2)C1=O (stereo not given) | 0.16 |
| CNS(=O)(=O)c1cc(C(=O)NCc2ccco2)ccc1Cl | 0.119 |
| O=C(Cc1cccs1)Nc1cccnc1 | active: 3.36 |
| CC1CCN(CC(O)COCCOc2ccc(Br)cc2)CC1 (stereo not given) | 0.0792 |
| CCOCC(=O)Nc1nnc(COc2ccc(Cl)cc2)s1 | 0.0363 |
| COC(=O)c1ccccc1OCCCOc1ccc(C=O)cc1OC | -0.36 |
| O=[N+]([O-])c1ccc(-c2cnc(SC(c3ccccc3)c3ccccc3)[nH]2)cc1 | -0.274 |
| O=C(Nc1nnc(-c2ccc(F)cc2)s1)C1CCN(S(=O)(=O)c2ccc(Cl)cc2)CC1 | -0.14 |
| COc1ccc(N=C2C(=Nc3ccc(OC)cc3)N(c3ccc(OC)cc3)C(=S)N2C(=O)c2ccc(OC)cc2)cc1 | -0.409 |
| COc1ccccc1NC(=O)CN1CCC(n2nnc3cc(F)ccc32)CC1 | -0.581 |
| O=C(CCS(=O)(=O)c1cccs1)N1CCN(c2ccc(F)cc2)CC1 | 0.0362 |
| CC(=O)C1=C(C)NC(SCC(=O)c2ccc(Cl)cc2)=C(C#N)C1CC(C)C (stereo not given) | -0.467 |
| Cc1ccc([N+](=O)[O-])cc1N/C=C1\CCc2ccccc2C1=O | 0.17 |
| COC(=O)c1ccc(NC2(C#N)C(=O)Nc3ccccc32)cc1 (stereo not given) | -0.744 |
| C/C(=N/NC(=O)C1CCCCC1)c1ccc([N+](=O)[O-])cc1 | -0.537 |
| c1ccc(NCc2cccnc2)cc1 | -0.0884 |
| NNC(=O)COc1ncn(-c2ccccc2)n1 | 0.0482 |

| Compound | z-score |
| --- | --- |
| CCn1c(CCNC(=O)c2ccc(Cl)cc2Cl)n[nH]c1=S | -0.193 |
| O=C(CSCc1ccc(Br)cc1)N1CCOCC1 | 0.939 |
| COc1cccc(/C(C#N)=C/c2c(-c3ccc(Cl)cc3)nc3c(C)cccn23)c1 | 0.373 |
| O=C(c1cc2c(ccc3ccccc32)oc1=O)N1CCCC1 | -0.158 |
| CCn1c(Cc2ccccc2)nnc1SCC(=O)Nc1cc(C)on1 | 0.0158 |
| N#Cc1cc(Oc2ccc(Cl)cc2)c(N2CCOCC2)cc1C#N | -0.388 |
| Cc1cccc(NC(=O)Cn2c(=O)oc3ccccc32)c1 | 0.936 |
| O=C(NC1CCCC1)c1cc(-c2cccs2)on1 | -0.243 |
| NC(=O)CSc1nnc(-c2ccc(S(=O)(=O)N3CCCCC3)cc2)n1-c1ccccc1 | -0.00995 |
| COc1ccc(C2C(C#N)=C(N)Nc3nc4ccccc4n32)cc1 (stereo not given) | 0.0826 |
| COC(=O)Oc1cncc(C(=O)O)c1 | -0.0704 |
| Cc1ccc(NC(=S)c2ccc(N(C)C)cc2)cc1 | -0.129 |
| Cc1ccccc1C(=O)/C=C1/c2ccccc2CC(C)(C)N1C | -0.398 |
| Cc1c(Cl)c([N+](=O)[O-])nn1CC(=O)NCc1cccs1 | -0.28 |
| NC(=O)COC(=O)CN1C(=O)C2CCCCC2C1=O (stereo not given) | -0.18 |
| Cc1noc(/C=C/c2ccco2)c1S(=O)(=O)N1CCC(C(=O)N2c3ccccc3CC2C)CC1 (stereo not given) | -0.615 |
| CCOc1ccc(C(=O)NCC(=O)OCC(=O)c2ccc3c(c2)-c2ccccc2C3)cc1 | -0.0949 |
| CCOC(=O)c1sc2ccccc2c1OC(=O)c1ccccc1 | 0.13 |
| COC(=O)CC1C(=O)NCCN1C(=O)CSc1nnc(Nc2ccc(OC)cc2)s1 (stereo not given) | 0.184 |
| O=C(CSc1nc(-c2ccco2)cc(C(F)(F)F)n1)NC1CCCC1 | -0.137 |
| O=C(NNC1=NCCC1)c1cccc(S(=O)(=O)N2CCOCC2)c1 | -0.144 |
| CN1CCN(CC(=O)N(C)c2nc(-c3ccccc3)cs2)CC1 | 1.12 |
| CCOC(=O)c1sc(=S)n(-c2cccc(C(F)(F)F)c2)c1SC | -0.0921 |
| Cc1nn(-c2ccccc2)c2c1C(=O)NC(=O)C(C)(C)C2 | 0.011 |

| Compound | z-score |
| --- | --- |
| O=C(NC(=S)Nc1ccc(Cl)cn1)C(c1ccccc1)c1ccccc1 | 0.284 |
| O=C(Cc1ccccc1)NC1CCN(S(=O)(=O)c2ccc(C(=O)O)cc2)CC1 | -0.248 |
| COc1cc(CN2CCC(C(=O)N3CCCC(C)C3)CC2)cc(OC)c1O (stereo not given) | -0.299 |
| CC1CC(C)CN(c2ccc(C(=O)OCC(=O)NC3CCCc4ccccc43)cc2[N+](=O)[O-])C1 (stereo not given) | 0.539 |
| O=C1c2ccccc2NC(c2ccccc2)N1/N=C/c1ccccc1 (stereo not given) | -0.228 |
| O=C(CN1CCCCCCC1)N/N=C/c1ccc(F)cc1F | -0.63 |
| Cc1cc(C(=O)Nc2ccccn2)cs1 | -0.104 |
| CC(C)(C)NC(=O)C12CCC(C)(c3nc4ccccc4nc31)C2(C)C (stereo not given) | -0.114 |
| Cc1ccc(C(=O)OCC(=O)NCc2cccs2)cc1 | 0.656 |
| CCCOc1ccc(C(=O)C(CN2CCOCC2)c2ccccc2)cc1 (stereo not given) | -0.565 |
| O=C1CSC(c2cn(-c3ccccc3)nc2-c2cc3ccccc3o2)N1Cc1ccccc1 (stereo not given) | -0.53 |
| COc1ccccc1N(C(=O)c1ccncc1)c1nc(-c2ccc([N+](=O)[O-])cc2)cs1 | -0.551 |
| CCOC(=O)N1CCN(C(=O)C2CCC(CNS(=O)(=O)c3ccc(Cl)cc3)CC2)CC1 (stereo not given) | -0.454 |
| Cc1ccc(NC(=S)N(CCCN2CCOCC2)Cc2ccco2)cc1Cl | -0.365 |
| COC(=O)c1ccc(Sc2nnnn2-c2ccccc2)c([N+](=O)[O-])c1 | -0.27 |
| O=C1CN(C(=O)CSc2nc3cc(Cl)ccc3c(=O)n2Cc2ccccc2)c2ccccc2N1 | active: 7.11 |
| O=S(=O)(Nc1ccc2c(c1)OCCO2)c1ccc(F)cc1 | -0.102 |
| N#C/C(=C/c1ccc(CNC(=O)C(=O)Nc2cc(Cl)cc(Cl)c2)o1)C(=O)NCc1cccnc1 | -0.181 |
| O=C(CN1C(=O)C2C3C=CC(C3)C2C1=O)Nc1cccc2c1CCCC2 (stereo not given) | -0.222 |
| C=CCSc1nc2c(c(=O)n(C)c(=O)n2C)n1CC | 0.292 |
| O=C(Nc1ccccc1N1CCN(c2ccccc2)CC1)C12CC3CC(CC(C3)C1)C2 | 0.288 |
| Cc1nc(SC2CC(=O)N(c3cc(Cl)cc(Cl)c3)C2=O)nc2c1CCCC2 (stereo not given) | 0.031 |
